Patent US9265253B2, “Use of macrocyclic picolinamides as fungicides” (DOW AGROSCIENCES LLC, priority 2013, dated 2016)

Test system: Magnaporthe grisea; Anamorph: Pyricularia oryzae
Format: in vivo
Design: key: A: 80-100; B: More than 0-Less than 80; C: Not Tested; D: No activity noticed in this bioassay
Details: 100 ppm; 1 Day Protectant; Rice Blast

SMILES	Disease Control PYRIOR 1 DP
C=CCO[C@@H]1[C@@H](Cc2ccc(F)cc2)CCC[C@H](NC(=O)c2nccc(OC)c2OCOC(=O)COCC)C(=O)O[C@H]1C [Compound F166]	D
CCOCC(=O)OCOc1c(OC)ccnc1C(=O)N[C@H]1CCC[C@H](Cc2ccc(F)cc2)[C@@H](OCC(C)C)[C@H](C)OC1=O [Compound F168]	D
